# Screen size: about 420,000 compounds; about 50,000 (12%) were called active. The shares of active, inactive and inconclusive entries below differ from those in the screen. Calls come from the whole dose curve; as a rule, active = well fitted inhibition curve with a large enough effect; inconclusive = small, poorly fitted or top-dose-only effect; inactive = flat fitted curve, though single readings scatter. No potency is given beside an inconclusive call; the fits are too rough.
# Assay: qHTS for Inhibitors of human tyrosyl-DNA phosphodiesterase 1 (TDP1): qHTS in cells in presence of CPT; note: nearly all actives have a fitted effect of over 55% in size
# Settings: chicken DT40 Tdp1-/-;hTDP1 cells + 20 nM CPT, ATP luminescence, 48 h; series mostly up to 46.2 µM
# Summary of the method: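 Chicken DT40 Tdp1-/- cells complemented with human TDP1, 400 cells/well, exposed to compounds plus 20 nM camptothecin for at least 48 h at 37 C; viability read as ATP content by CellTiter-Glo luminescence.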
# Potency is the fitted concentration of half-maximal effect; tags give direction and shape of the fitted curve.
row,Structure (SMILES),Potency
1,Cc1ccc(NC(=O)CCCn2c3ccccc3c(=O)c3cc(C)ccc32)c(Br)c1,"inconclusive [inhibitor, single point]"
2,O=C(/C=C/c1ccccc1[N+](=O)[O-])N1CCN(C(=O)c2ccco2)CC1,inactive
3,O=C(Nc1ccc2c(c1)OCO2)c1csc(COCCO)n1,"inconclusive [inhibitor, single point]"
4,Cc1c(Cl)cccc1Nc1nc(N)nc(CSc2nc3ccccc3s2)n1,"inconclusive [inhibitor, single point]"
5,CN(C)CCN1C(=O)c2oc3ccccc3c(=O)c2C1c1cccc(Br)c1 (stereo unspecified),inactive
6,CCN(C(=O)c1cccc(NC(=O)c2ccccc2)c1)C1CCCCC1,active: 14.6 µM
7,Cc1cc(NC(=O)C(C)SCC(=O)Nc2cc(C(F)(F)F)ccc2N2CCCCC2)no1 (stereo unspecified),"inconclusive [inhibitor, partial curve, poor fit]"
8,O=[N+]([O-])c1ccc(Oc2ccc(S(=O)(=O)Nc3ccccc3)cc2)cc1,"inconclusive [inhibitor, partial curve, poor fit]"
9,O=C1C=C(NNC(=O)c2cccnc2)CC(c2ccco2)C1 (stereo unspecified),inactive
10,CCOc1ccc(NC(=O)CN(C)C(=O)c2cccc(S(=O)(=O)N3CCN(C)CC3)c2)cc1OCC,inactive
11,Cc1cc(Cl)ccc1OC(C)C(=O)Nc1cnn(CCCC(=O)O)c1 (stereo unspecified),inactive
12,CCOC(=O)C1(Cc2cccc(F)c2)CCN(C(=O)c2ccoc2C)CC1,"inconclusive [inhibitor, single point]"
13,COCCn1c(SCC(=O)NC(=O)NC2CCCCC2)nc2ccccc2c1=O,"inconclusive [inhibitor, single point]"
14,CCNc1nc2c(c(=O)[nH]c(=O)n2C)n1CCCc1ccccc1,inactive
15,CN1CCC(CN2c3ccccc3Sc3ccccc32)C1 (stereo unspecified),active: 18.8 µM
16,COCCCN(C(=O)CC1OC(=O)c2ccccc21)c1c(N)n(Cc2ccccc2)c(=O)[nH]c1=O (stereo unspecified),inactive
17,COc1cc2c(cc1OC)CN(C(=O)CSc1nc(C)cc(C)c1C#N)CC2,active: 23.1 µM
18,COc1cc(C(=O)NC(C)c2cccc3ccccc23)cc(OC)c1OC (stereo unspecified),"inconclusive [inhibitor, single point]"
19,CCCCN(CC)S(=O)(=O)c1ccc(C(=O)Nc2nnc(COC)o2)cc1,"inconclusive [inhibitor, single point]"
20,Cc1ccc(NS(=O)(=O)c2cc(-c3n[nH]c(=O)c4ccccc34)ccc2C)cc1,active: 7.31 µM
21,CCc1ccc(Nc2n[n+](C)c(-c3ccncc3)s2)cc1,active: 16.4 µM
